Results from patent US20180362668A1 (JIANGSU ALPHAMAB BIOPHARMACEUTICALS, published 2018).

What was measured:
[1] = target: the molecule itself; assay: non-reducing SDS-PAGE densitometry of Protein A-purified co-transfection product; chain A:chain B vectors 1:4
Text: (§1) The cotransfection ratio of recombinant expression vector of the chain A to that of the chain B was 4:1, 1:1 and 1:4. The transiently expressed culture supernatant was collected after 5-6 days of cultivation.

[2] = target: the molecule itself; assay: non-reducing SDS-PAGE densitometry of Protein A-purified co-transfection product; chain A:chain B vectors 4:1
Text: as §1

[3] = target: the molecule itself; assay: non-reducing SDS-PAGE densitometry of Protein A-purified co-transfection product; chain A:chain B vectors 1:1
Text: as §1

[4] = target: the molecule itself; assay: non-reducing SDS-PAGE densitometry of Protein A-purified co-transfection product; chain A:chain B vectors 4:1; remark: listed apart in the source
Text: (§2) The cotransfection ratio of recombinant expression vector of the chain A to that of the chain B was 4:1, 1:1 and 1:4.

[5] = target: the molecule itself; assay: non-reducing SDS-PAGE densitometry of Protein A-purified co-transfection product; chain A:chain B vectors 1:1; remark: listed apart in the source
Text: as §2

[6] = target: the molecule itself; assay: non-reducing SDS-PAGE densitometry of Protein A-purified co-transfection product; chain A:chain B vectors 1:4; remark: listed apart in the source
Text: as §2

B1: VhH-Fc fusion protein chain B with T366S + L368A + Y407V + K409A + E357A (Fc fusion)
chain: QVQLQESGGGSVQAGGSLRLSCAASEYIYSSYCMAWFRQAPGKEREGVAVIGSDGSTSYADSVKGRFTISKDNAKNTLYLQMNSLKPEDTAMYYCAAIGGYCYQPPYEYQYWGQGTQVTVSS[letters of human IgG1 Fc with C220S E357A T366S L368A Y407V K409A (EU numbers) omitted]
notes: Positions are EU index; also called combination 18 chain B
VhH-Fc homodimer (%) [1]: 9% | VhH-Fc homodimer (%) [2]: 10% | VhH-Fc homodimer (%) [3]: 7%

B2: VhH-Fc fusion protein chain B with D356C + T366S + L368A + Y407V (Fc fusion)
chain: QVQLQESGGGSVQAGGSLRLSCAASEYIYSSYCMAWFRQAPGKEREGVAVIGSDGSTSYADSVKGRFTISKDNAKNTLYLQMNSLKPEDTAMYYCAAIGGYCYQPPYEYQYWGQGTQVTVSS[letters of human IgG1 Fc with changes omitted]
notes: Positions are EU index; also called combination 2 chain B (VhH-Fc format)
VhH-Fc homodimer (%) [1]: 61% | VhH-Fc homodimer (%) [2]: 17% | VhH-Fc homodimer (%) [3]: 27%

B3: VhH-Fc fusion protein chain B with D356C + T366S + L368A + Y407V + F405K (Fc fusion)
chain: QVQLQESGGGSVQAGGSLRLSCAASEYIYSSYCMAWFRQAPGKEREGVAVIGSDGSTSYADSVKGRFTISKDNAKNTLYLQMNSLKPEDTAMYYCAAIGGYCYQPPYEYQYWGQGTQVTVSS[letters of human IgG1 Fc with changes omitted]
notes: also called combination 4 chain B (VhH-Fc format)
VhH-Fc homodimer (%) [4]: < 1% | VhH-Fc homodimer (%) [5]: 19% | VhH-Fc homodimer (%) [6]: 53%

B4: VhH-Fc fusion protein chain B with T366S + L368A + Y407V + K409A + K392D (Fc fusion)
chain: QVQLQESGGGSVQAGGSLRLSCAASEYIYSSYCMAWFRQAPGKEREGVAVIGSDGSTSYADSVKGRFTISKDNAKNTLYLQMNSLKPEDTAMYYCAAIGGYCYQPPYEYQYWGQGTQVTVSS[letters of human IgG1 Fc with C220S T366S L368A K392D Y407V K409A (EU numbers) omitted]
notes: Positions are EU index; also called combination 15 chain B
VhH-Fc homodimer (%) [1]: 31% | VhH-Fc homodimer (%) [2]: 6% | VhH-Fc homodimer (%) [3]: 13%

B5: VhH-Fc fusion protein chain B with T366S + L368A + Y407V + D399S + F405K (Fc fusion)
chain: QVQLQESGGGSVQAGGSLRLSCAASEYIYSSYCMAWFRQAPGKEREGVAVIGSDGSTSYADSVKGRFTISKDNAKNTLYLQMNSLKPEDTAMYYCAAIGGYCYQPPYEYQYWGQGTQVTVSS[letters of human IgG1 Fc with C220S T366S L368A D399S F405K Y407V (EU numbers) omitted]
notes: Positions are EU index; also called combination 10 chain B
VhH-Fc homodimer (%) [4]: < 1% | VhH-Fc homodimer (%) [5]: 13% | VhH-Fc homodimer (%) [6]: 27%
